According to the supplement of paper PMC8728848:
The other results are listed elsewhere or left out.

Experiments:
Test in all cases: glycan array binding signal (z-score within array); higher = stronger binding
Details in all cases: glycan notation: IUPAC condensed, linker removed
[1] = molecular target: Fuc(a1-3)GlcNAc
Procedure, shortened: (§1)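 The binding signal is a Z-score computed within each array and averaged over linkers. Arrays of the same protein sequence at different concentrations or buffers were also averaged together. Data originate from 3228 arrays in the Consortium for Functional Glycomics database, kept only where the protein sequence was available.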

[2] = molecular target: Fuc(a1-3)[Gal(b1-4)]Glc6S
Procedure, shortened: as §1

[3] = molecular target: Fuc(a1-3)[Gal(b1-4)]GlcNAc
Procedure, shortened: as §1

[4] = molecular target: Fuc(a1-3)[Gal(b1-4)]GlcNAc(b1-2)Man
Procedure, shortened: as §1

[5] = molecular target: Fuc(a1-3)[Gal(b1-4)]GlcNAc(b1-2)Man(a1-3)[Fuc(a1-3)[Gal(b1-4)]GlcNAc(b1-2)Man(a1-6)]Man(b1-4)GlcNAc(b1-4)GlcNAc
Procedure, shortened: as §1

[6] = molecular target: Fuc(a1-3)[Gal(b1-4)]GlcNAc(b1-2)Man(a1-3)[Fuc(a1-3)[Gal(b1-4)]GlcNAc(b1-2)Man(a1-6)]Man(b1-4)GlcNAc(b1-4)[Fuc(a1-6)]GlcNAc
Procedure, shortened: as §1

[7] = molecular target: Fuc(a1-3)[Gal(b1-4)]GlcNAc(b1-3)Gal(b1-3)[Fuc(a1-4)]GlcNAc
Procedure, shortened: as §1

[8] = molecular target: Fuc(a1-3)[Gal(b1-4)]GlcNAc(b1-3)Gal(b1-4)[Fuc(a1-3)]GlcNAc
Procedure, shortened: as §1

[9] = molecular target: Fuc(a1-3)[Gal(b1-4)]GlcNAc(b1-3)Gal(b1-4)[Fuc(a1-3)]GlcNAc(b1-3)Gal(b1-4)[Fuc(a1-3)]GlcNAc
Procedure, shortened: as §1

[10] = molecular target: Fuc(a1-3)[Gal(b1-4)]GlcNAc(b1-3)GalNAc
Procedure, shortened: as §1

[11] = molecular target: Fuc(a1-3)[Gal(b1-4)]GlcNAc(b1-6)GalNAc
Procedure, shortened: as §1

[12] = molecular target: Fuc(a1-3)[Gal(b1-4)]GlcNAc(b1-6)[Gal(b1-3)GlcNAc(b1-3)]Gal(b1-4)Glc
Procedure, shortened: as §1

[13] = molecular target: Fuc(a1-3)[Gal(b1-4)]GlcNAc6S
Procedure, shortened: as §1

[14] = molecular target: Fuc(a1-3)[Gal3S(b1-4)]Glc
Procedure, shortened: as §1

[15] = molecular target: Fuc(a1-3)[Gal3S(b1-4)]GlcNAc
Procedure, shortened: as §1

[16] = molecular target: Fuc(a1-3)[Gal3S(b1-4)]GlcNAc6S
Procedure, shortened: as §1

[17] = molecular target: Fuc(a1-3)[GalNAc(b1-4)]GlcNAc
Procedure, shortened: as §1

[18] = molecular target: Fuc(a1-3)[GalNAc(b1-4)]GlcNAc6S
Procedure, shortened: as §1

[19] = molecular target: Fuc(a1-4)GlcNAc
Procedure, shortened: as §1

[20] = molecular target: Fuc(b1-3)GlcNAc
Procedure, shortened: as §1

[21] = molecular target: Gal(a1-2)Gal
Procedure, shortened: as §1

[22] = molecular target: Gal(a1-3)Gal
Procedure, shortened: as §1

[23] = molecular target: Gal(a1-3)Gal(b1-3)GlcNAc
Procedure, shortened: as §1

[24] = molecular target: Gal(a1-3)Gal(b1-3)GlcNAc(b1-2)Man
Procedure, shortened: as §1

[25] = molecular target: Gal(a1-3)Gal(b1-3)GlcNAc(b1-2)Man(a1-3)[Gal(a1-3)Gal(b1-3)GlcNAc(b1-2)Man(a1-6)]Man(b1-4)GlcNAc(b1-4)GlcNAc
Procedure, shortened: as §1

[26] = molecular target: Gal(a1-3)Gal(b1-3)GlcNAc(b1-3)GalNAc
Procedure, shortened: as §1

[27] = molecular target: Gal(a1-3)Gal(b1-3)GlcNAc(b1-6)GalNAc
Procedure, shortened: as §1

[28] = molecular target: Gal(a1-3)Gal(b1-3)[Fuc(a1-4)]GlcNAc(b1-2)Man(a1-3)[Gal(a1-3)Gal(b1-3)[Fuc(a1-4)]GlcNAc(b1-2)Man(a1-6)]Man(b1-4)GlcNAc(b1-4)GlcNAc
Procedure, shortened: as §1

[29] = molecular target: Gal(a1-3)Gal(b1-4)Glc
Procedure, shortened: as §1

[30] = molecular target: Gal(a1-3)Gal(b1-4)GlcNAc
Procedure, shortened: as §1

[31] = molecular target: Gal(a1-3)Gal(b1-4)GlcNAc(b1-2)Man
Procedure, shortened: as §1

[32] = molecular target: Gal(a1-3)Gal(b1-4)GlcNAc(b1-2)Man(a1-3)[Gal(a1-3)Gal(b1-4)GlcNAc(b1-2)Man(a1-6)]Man(b1-4)GlcNAc(b1-4)GlcNAc
Procedure, shortened: as §1

[33] = molecular target: Gal(a1-3)Gal(b1-4)GlcNAc(b1-3)GalNAc
Procedure, shortened: as §1

[34] = molecular target: Gal(a1-3)Gal(b1-4)GlcNAc(b1-6)GalNAc
Procedure, shortened: as §1

[35] = molecular target: Gal(a1-3)Gal(b1-4)[Fuc(a1-3)]GlcNAc
Procedure, shortened: as §1

[36] = molecular target: Gal(a1-3)Gal(b1-4)[Fuc(a1-3)]GlcNAc(b1-2)Man(a1-3)[Gal(a1-3)Gal(b1-4)[Fuc(a1-3)]GlcNAc(b1-2)Man(a1-6)]Man(b1-4)GlcNAc(b1-4)GlcNAc
Procedure, shortened: as §1

[37] = molecular target: Gal(a1-3)GalNAc
Procedure, shortened: as §1

[38] = molecular target: Gal(a1-3)[Gal(a1-4)]Gal(b1-4)GlcNAc
Procedure, shortened: as §1

[39] = molecular target: Gal(a1-4)Gal(b1-3)GlcNAc(b1-2)Man(a1-3)[Gal(a1-4)Gal(b1-3)GlcNAc(b1-2)Man(a1-6)]Man(b1-4)GlcNAc(b1-4)GlcNAc
Procedure, shortened: as §1

[40] = molecular target: Gal(a1-4)Gal(b1-4)Glc
Procedure, shortened: as §1

[41] = molecular target: Gal(a1-4)Gal(b1-4)GlcNAc
Procedure, shortened: as §1

[42] = molecular target: Gal(a1-4)Gal(b1-4)GlcNAc(b1-2)Man(a1-3)[Gal(a1-4)Gal(b1-4)GlcNAc(b1-2)Man(a1-6)]Man(b1-4)GlcNAc(b1-4)GlcNAc
Procedure, shortened: as §1

[43] = molecular target: Gal(a1-4)Gal(b1-4)GlcNAc(b1-3)Gal(b1-4)Glc
Procedure, shortened: as §1

[44] = molecular target: Gal(a1-4)GlcNAc
Procedure, shortened: as §1

[45] = molecular target: Gal(a1-6)Glc
Procedure, shortened: as §1

B1: DrGRIFIN (Danio rerio), Q6DGJ1 (protein)
chain: MTLRFEASCPDGLCPGWSVILKGETPPEASKFEINFLCDRDDRVAFHFNPRFTESDIICNSYMANRWGQEERCNHFPLGVEEPFQIEIYSDNDHFHVYIDKAKVMQYKHRVEDLKTITKLQVVNDVKISSLEITKKLFY
glycan array binding signal (z-score) [1]: -0.114
glycan array binding signal (z-score) [2]: -0.176
glycan array binding signal (z-score) [3]: -0.135
glycan array binding signal (z-score) [4]: -0.171
glycan array binding signal (z-score) [5]: -0.118
glycan array binding signal (z-score) [6]: -0.176
glycan array binding signal (z-score) [7]: -0.152
glycan array binding signal (z-score) [8]: -0.188
glycan array binding signal (z-score) [9]: -0.195
glycan array binding signal (z-score) [10]: -0.162
glycan array binding signal (z-score) [11]: -0.192
glycan array binding signal (z-score) [12]: -0.109
glycan array binding signal (z-score) [13]: -0.142
glycan array binding signal (z-score) [14]: -0.175
glycan array binding signal (z-score) [15]: -0.229
glycan array binding signal (z-score) [16]: -0.096
glycan array binding signal (z-score) [17]: -0.141
glycan array binding signal (z-score) [18]: -0.135
glycan array binding signal (z-score) [19]: -0.133
glycan array binding signal (z-score) [20]: -0.107
glycan array binding signal (z-score) [21]: 0.052
glycan array binding signal (z-score) [22]: -0.12
glycan array binding signal (z-score) [23]: -0.132
glycan array binding signal (z-score) [24]: -0.099
glycan array binding signal (z-score) [25]: -0.014
glycan array binding signal (z-score) [26]: -0.107
glycan array binding signal (z-score) [27]: 0.004
glycan array binding signal (z-score) [28]: -0.14
glycan array binding signal (z-score) [29]: -0.186
glycan array binding signal (z-score) [30]: -0.124
glycan array binding signal (z-score) [31]: -0.034
glycan array binding signal (z-score) [32]: 3.39
glycan array binding signal (z-score) [33]: -0.136
glycan array binding signal (z-score) [34]: -0.187
glycan array binding signal (z-score) [35]: -0.144
glycan array binding signal (z-score) [36]: -0.146
glycan array binding signal (z-score) [37]: -0.133
glycan array binding signal (z-score) [38]: -0.169
glycan array binding signal (z-score) [39]: -0.152
glycan array binding signal (z-score) [40]: -0.143
glycan array binding signal (z-score) [41]: -0.209
glycan array binding signal (z-score) [42]: -0.124
glycan array binding signal (z-score) [43]: -0.15
glycan array binding signal (z-score) [44]: -0.212
glycan array binding signal (z-score) [45]: -0.187
